Measured values published in the supplement of paper PMC11417369.
This is one part of the list.

Each sequence was assayed on PfAP2-HC AP2 domain (GST-tagged) (assay: gcPBM binding intensity (ln(normalized median fluorescence intensity)); higher = stronger DNA binding).
Outline: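 Binding intensity values are the highest Masliner-normalised natural-log median intensity among replicate spots of either probe orientation. The binding step lasted 1 h in 1× PBS with 1% milk, 0.2 mg/ml BSA, 0.5% salmon testes DNA and 0.03% Triton X-100, using GST-tagged P. falciparum DNA-binding domains expressed in E. coli on an Agilent 4 × 180k array of primer-extended double-stranded 36-bp intergenic genomic probes plus negative controls. Alexa488 anti-GST antibody and a 488 nm scan detected bound protein.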

| Sequence | gcPBM binding intensity (ln) |
| --- | --- |
| TTTTTTTTGATAAGTTGTACAATGATATATATCCCT [XGTACX_site3560] | 9.63 |
| ATAGTTTAATTTATATGTACATATAATATTGATTTG [XGTACX_site7520] | 9.7 |
| TATATTTTATATTGGTGTACAATTTTTTTTTTTTTT [XGTACX_site4291] | 9.54 |
| ATAAATGACAGACACACACACAAAAAAAAAAAACAA [CACACA_site2626] | 11.5 |
| ACCCTATCTGTAACTACACACCGCATATTGTTTACT [CACACA_site5661] | 10.2 |
| AAATATTTATATGTTACACACTGTTTATAACTTTCT [CACACA_site6752] | 9.9 |
| CTTCTGTAATTATCACGTACATATAATAATTAAAAT [XGTACX_site8973] | 9.52 |
| TTTTTATCTTTGCTGTGTACATAAATAAAAATAACT [XGTACX_site7625] | 9.51 |
| CCTTTTTTTTTTTTATGTACTAAAATAAAATTAGAA [XGTACX_site5956] | 9.35 |
| ATAACAACCCAATGTTGTACATTTAAATATAACGTA [XGTACX_site7114] | 9.66 |
| TTCTAAAATTATATAGTGCAATTATATTAATTTTTC | 9.51 |
| TATAACATATGACACACACACATACATACACAAAAA [CACACA_site6935] | 10.5 |
| TATATATATTTATGTACACACACACCGATAAATAAA [CACACA_site4404] | 10.6 |
| ACAATTTATATTATATGTACTTAAAAAGTTCGTAAA [XGTACX_site6421] | 9.47 |
| TTTTATACATAAATATGTACGTATATATAATGAATT [XGTACX_site1337] | 9.53 |
| GCCTCATCGTAGCAGTGTACGTTTTTTTTTTTTTTT [XGTACX_site8648] | 9.8 |
| TTGTGTTTGAAAAAATGTACATGTGTCTTACAACAA [XGTACX_site8371] | 9.59 |
| TTATACAGATATTTAACACACATTTTATAAAGTGCC [CACACA_site4851] | 9.65 |
| TTACGCGCTTATTACACACACATACAAATAAGGATT [CACACA_site3486] | 9.94 |
| AAAAATAAAAAAAATACATGCAATGAAACATTTATT [TGCATGCA_site263] | 9.59 |
| ATTTGTATTGTATATGCACACATAGAACACTTTTTT [CACACA_site9373] | 9.95 |
| AACAAAATAAAAAAAACATGCAAGAATTCTTATATG [TGCATGCA_site714] | 9.84 |
| AAACAAAAAAGAAAAACAATGAGATAAAGAAGAGAA [CACACA_negctrl_site804] | 9.82 |

| Sequence | gcPBM binding intensity (ln) |
| --- | --- |
| AAAAGAAAAATATTCACACATATAAATAATATATAA [CACACA_site4201] | 9.57 |
| TTTAATTATTTATTTTGTACATATATTATATATATA [XGTACX_site5760] | 9.68 |
| ATTTTTATATATATCTGTACTAAAAAAAAAAAAAAA [XGTACX_site5258] | 9.17 |
| AGAAGTAAAAAAATAGCACACACACTAATACCAACA [CACACA_site8354] | 10.5 |
| TTATATTAATATTATATTTAAAAATAAAATATAAAT [TGCATGCA_negctrl_site79] | 8.91 |
| TATTTATATATTTGTTGTACGTATTTATATATTCTT [XGTACX_site3622] | 9.9 |
| ATTAATTTGATTTTAATAAGAATATTTGTGGGGAAT [GTGCAC_negctrl_site198] | 9.38 |
| TTTTATTTTTGTTGGTCCCTCATTTAAGTTAATAAA [TGCATGCA_negctrl_site465] | 9.57 |
| ATATTGATTTGTGGCACACATATAATATATTCCTAT [CACACA_site3046] | 9.82 |
| TTTTCAATATATATATGCTGAATTTATAATTTGTAT [CACACA_negctrl_site1774] | 9.67 |
| TGAATAATAAAAAATACACACACATATATATATATT [CACACA_site9146] | 10.1 |
| ACCATATAAAGTTAGGTGCATTTGTATGTATCTTAC | 9.65 |
| TCTTGTTCGCCCTATTGTACAAACATATATTGTGAT [XGTACX_site2884] | 9.78 |
| TTATTTTGATCTGGTTGTACATATAATATATAGTGG [XGTACX_site357] | 9.58 |
| AAAAGAGAAATGGGCACACACACACCCATTATATAT [CACACA_site1530] | 10.2 |
| ATATATACATACATATGTACATATGTAGATATATTT [XGTACX_site1230] | 9.76 |
| ATTTTTTTTGTTTATTCTTATGTGGTTATTAAATTA [CACACA_negctrl_site1000] | 9.73 |
| TATTTGTTTAAATTCACACACGTATATATATTTATA [CACACA_site5651] | 9.9 |
| ATTATGAAATATCGTGCACACACGAATAATATAAGA [CACACA_site1294] | 9.87 |
| TACGTTTTAAAACACACACACAAAAAAAAAAAAAAA [CACACA_site3876] | 9.78 |
| ATGTACCTTCAAACTACACACAAATGAAGGAACACA [CACACA_site3330] | 9.82 |
| ATCTAATAAAAATACACACACATATGGTTTGTGAAT [CACACA_site6962] | 10.1 |
